Assay results as given in PubChem BioAssay AID504339 (National Center for Advancing Translational Sciences (NCATS), 2011).
In all, about 390,000 compounds went through this assay and about 17,000 (4.4%) were called active. Inconclusive means that the source gave no clear call. Such entries were picked first, then a sample of the others. Calls come from the whole dose curve; as a rule, active = well fitted inhibition curve with a large enough effect; inconclusive = small, poorly fitted or top-dose-only effect; inactive = no such curve, though single readings can be large or run the other way. A potency beside an inconclusive call is a rough fit, not a confirmed value.

The compounds below were run against Lysine-specific demethylase 4A (Homo sapiens) (UniProt O75164) (assay: qHTS Assay for Inhibitors of JMJD2A-Tudor Domain). Settings: AlphaScreen JMJD2A-Tudor / H3K4me3 peptide binding; activity change, negative = inhibition: at 114 µM (top of the series).
% is set by controls: 0 for no effect and ±100 for the full control effect; potency is the fitted concentration of half-maximal effect; tags give direction and shape of the fitted curve.
Note: nearly all actives have a fitted effect of over 50% in size.

UniProt O75164, sequence (O75164 whole entry, looked up, the tested form may be a part): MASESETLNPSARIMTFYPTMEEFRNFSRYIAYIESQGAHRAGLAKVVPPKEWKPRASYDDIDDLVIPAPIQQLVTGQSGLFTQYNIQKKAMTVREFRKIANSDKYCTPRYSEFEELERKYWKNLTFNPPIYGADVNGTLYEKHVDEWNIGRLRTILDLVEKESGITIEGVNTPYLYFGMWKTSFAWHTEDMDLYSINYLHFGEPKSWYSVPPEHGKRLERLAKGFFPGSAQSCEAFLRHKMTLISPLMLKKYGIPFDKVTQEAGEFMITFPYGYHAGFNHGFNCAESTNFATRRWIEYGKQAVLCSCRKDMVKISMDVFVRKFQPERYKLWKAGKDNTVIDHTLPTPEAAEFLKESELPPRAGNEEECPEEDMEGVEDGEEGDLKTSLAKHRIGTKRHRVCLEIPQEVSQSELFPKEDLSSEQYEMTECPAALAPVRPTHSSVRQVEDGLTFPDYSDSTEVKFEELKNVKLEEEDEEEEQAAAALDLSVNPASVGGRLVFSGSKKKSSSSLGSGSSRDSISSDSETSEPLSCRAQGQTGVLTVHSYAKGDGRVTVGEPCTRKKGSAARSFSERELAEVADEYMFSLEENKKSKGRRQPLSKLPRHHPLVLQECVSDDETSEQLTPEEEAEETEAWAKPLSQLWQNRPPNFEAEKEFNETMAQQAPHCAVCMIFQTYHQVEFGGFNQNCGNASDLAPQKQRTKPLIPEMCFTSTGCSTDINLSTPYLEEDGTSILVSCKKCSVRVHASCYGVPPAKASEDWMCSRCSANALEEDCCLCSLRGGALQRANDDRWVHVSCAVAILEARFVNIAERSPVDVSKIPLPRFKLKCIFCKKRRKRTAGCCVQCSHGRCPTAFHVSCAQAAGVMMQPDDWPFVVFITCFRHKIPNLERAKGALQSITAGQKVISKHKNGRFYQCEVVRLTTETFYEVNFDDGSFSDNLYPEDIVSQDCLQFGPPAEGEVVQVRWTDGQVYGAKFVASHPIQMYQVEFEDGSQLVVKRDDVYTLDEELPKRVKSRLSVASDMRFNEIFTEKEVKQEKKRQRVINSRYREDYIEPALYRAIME

Compound | Potency | activity change, negative = inhibition
CCn1cc(C(=O)OCC(=O)c2cc(C)n(-c3cccc(C(F)(F)F)c3)c2C)c(=O)c2ccc(C)nc21 | inconclusive: 22.4 µM [inhibitor, full curve, poor fit] | –
CC1(C)CC(=O)C(Sc2ccccc2C(=O)O)=C(O)C1 | active: 25.1 µM | –
O=C(c1cc(-c2ccccc2)nc2ccccc12)N1CCN(c2ccccc2O)CC1 | inconclusive: 56.2 µM [inhibitor, partial curve] | –
Cc1cc(C)c2nc(N(CCN(C)C)C(=O)c3ccc(S(=O)(=O)N(C)CC4CCCO4)cc3)sc2c1 (centres undefined) | inconclusive: 44.7 µM [inhibitor, partial curve] | –
COc1ccc(CCNc2nc(C)c(C(C)=O)s2)cc1OC | inconclusive: 56.2 µM [inhibitor, partial curve] | –
CC(=O)NNc1[nH]c2c(c(=O)c1[N+](=O)[O-])c(=O)n(C)c(=O)n2C | inconclusive: 44.7 µM [inhibitor, single point] | –
Cc1n[nH]c(C)c1S(=O)(=O)N1CCc2ccccc2C1 | – | inactive: -10.1%
CCCN1CCN(CCCNC(=O)Cn2nc(C)n3c(cc4cc(F)ccc43)c2=O)CC1 | inactive | –
COc1ccc(-c2csc(N(CCCN3CCOCC3)C(=O)c3ccco3)n2)cc1 | active: 100 µM | –
O=C(O)c1cc2ccccc2cn1 | active: 0.316 µM | –
COc1ccc(/C=C2\CCC/C(=C\c3ccc(OC)c(OC)c3OC)C2=O)c(OC)c1OC | inconclusive: 44.7 µM [inhibitor, partial curve] | –
CCOCCn1c(=O)c2c(nc3n2CC(C)CN3Cc2ccccc2)n(C)c1=O (centres undefined) | inconclusive: 17.8 µM [inhibitor, full curve] | –
COc1ccccc1/C=C\C=N\n1c(-c2ccc(Cl)cc2Cl)n[nH]c1=S | inconclusive: 50.1 µM [inhibitor, partial curve] | –
COc1ccc(C(=O)/C=C/c2ccc(O)cc2)c(O)c1CC=C(C)C | active: 44.7 µM | –
COc1ccc(N2CCN(C(=O)c3ccc(Cn4nc(C)c([N+](=O)[O-])c4C)o3)CC2)cc1 | – | inactive: -33.8%
COc1ccc(-n2c(C)ccc2-c2ccccc2)cn1 | inconclusive: 89.1 µM [inhibitor, partial curve] | –
CCOC(=O)c1c(C)c(C(=O)N2CCc3ccccc3C2)c(C)n1CC | inconclusive: 56.2 µM [inhibitor, partial curve] | –
Cc1cccc(C)c1-n1c(C)cc(/C=N/NC(N)=S)c1C | active: 50.1 µM | –
Cn1c(CNc2ccccc2O)nc2ccccc21 | inconclusive: 56.2 µM [inhibitor, partial curve] | –
